Laboratory results reported in the supplement of paper PMC3334620.
Whole data set: some 33,000 sequences, median “E-score (-0.5 to 0.5)” near -0.035, cut for the highest 2% near 0.35. Some of the results follow.

target: T1, Pdr3 (UniProt P33200); assay: PBM E-score (8-mer binding enrichment) (E-score (-0.5 to 0.5)); higher = stronger / more preferred TF binding; most listed sequences are background and not binding sites; conditions: protein concentration: 200 nM; construct: GST-full length
T1 sequence: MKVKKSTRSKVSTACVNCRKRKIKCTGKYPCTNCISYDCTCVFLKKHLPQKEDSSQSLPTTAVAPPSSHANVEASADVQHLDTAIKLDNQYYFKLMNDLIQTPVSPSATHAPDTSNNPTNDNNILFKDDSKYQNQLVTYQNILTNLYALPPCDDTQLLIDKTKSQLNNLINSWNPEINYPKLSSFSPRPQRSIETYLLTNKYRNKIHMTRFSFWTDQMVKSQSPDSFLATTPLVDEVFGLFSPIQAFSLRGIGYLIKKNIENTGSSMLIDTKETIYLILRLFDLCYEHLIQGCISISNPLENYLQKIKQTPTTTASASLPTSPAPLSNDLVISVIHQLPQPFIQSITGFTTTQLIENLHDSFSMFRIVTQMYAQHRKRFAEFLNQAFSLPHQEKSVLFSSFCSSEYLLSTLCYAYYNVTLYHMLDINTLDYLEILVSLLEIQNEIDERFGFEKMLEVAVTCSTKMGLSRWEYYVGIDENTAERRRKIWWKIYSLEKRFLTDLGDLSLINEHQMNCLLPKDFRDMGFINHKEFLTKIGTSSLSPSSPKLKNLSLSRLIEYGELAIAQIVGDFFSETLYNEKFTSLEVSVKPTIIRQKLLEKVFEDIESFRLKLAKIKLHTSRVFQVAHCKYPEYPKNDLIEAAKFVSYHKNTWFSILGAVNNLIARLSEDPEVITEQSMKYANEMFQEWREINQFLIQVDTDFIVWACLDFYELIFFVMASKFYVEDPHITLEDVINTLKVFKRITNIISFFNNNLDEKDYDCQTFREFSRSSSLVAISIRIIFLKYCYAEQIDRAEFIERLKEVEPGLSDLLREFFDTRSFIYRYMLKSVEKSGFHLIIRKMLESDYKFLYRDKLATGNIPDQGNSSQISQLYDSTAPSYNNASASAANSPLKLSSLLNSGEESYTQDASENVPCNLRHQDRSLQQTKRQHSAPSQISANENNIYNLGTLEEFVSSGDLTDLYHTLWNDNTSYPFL
Outline: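 For each ungapped eight-base word taken together with its reverse complement, the Universal PBM Analysis Suite assigned an E-score. Binding data came from GST-tagged yeast transcription factors, applied at about 100-200 nM, on universal all-10-mer Agilent arrays made double-stranded by primer extension. Fluorescent anti-GST marked bound protein, and scans were normalised with masliner.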

Row | Sequence | PBM E-score
1 | CAATTCTG | -0.0556
2 | TGCTAAAA | -0.248
3 | GCTGAATA | -0.197
4 | AATGGTCA | -0.0101
5 | AAAAAAGC | -0.211
6 | CACTATCC | 0.00589
7 | CCGATGGC | 0.175
8 | GATCGGCA | 0.0987
9 | CCGTCACC | 0.104
10 | ACATCAGG | -0.0839
11 | AGAGGGCT | -0.364
12 | AACGTTCT | 0.0356
13 | ATGCCATA | -0.229
14 | ACGGAAGT | 0.393
15 | CGGATGTC | 0.325
16 | AGGATACT | -0.0749
17 | ACGCATTA | -0.214
18 | AGAATAGA | -0.132
19 | ACCAGCAT | -0.125
20 | ATTTAGGG | 0.0786
21 | AGGCATAT | -0.108
22 | ATAGGAAC | -0.0862

Row | Sequence | PBM E-score
23 | GGTATACA | -0.0963
24 | CCGGCCCG | 0.375
25 | AAACAGAG | -0.152
26 | ATACCTTG | -0.152
27 | CAGAGTTA | 0.0193
28 | CGACCGTA | 0.0323
29 | ACGATTGA | -0.0575
30 | CCACCCGA | 0.216
31 | GGGTTCCA | -0.0331
32 | ACTGCAGG | -0.252
33 | GAGCCCTC | -0.153
34 | GTGCTATA | -0.0694
35 | CTTCAAGC | -0.109
36 | ACGTCCAG | -0.186
37 | AGAAGACT | -0.305
38 | ATAATTTA | 0.119
39 | TACGTTAA | -0.151
40 | AGAATCTC | -0.0751
41 | CGTACCCA | -0.111
42 | GCTCATTA | -0.0242
43 | ATTACGGC | 0.0318
44 | GTTGGAAA | -0.0837

Row | Sequence | PBM E-score
45 | CATTTGCG | 0.0507
46 | AGTGCGAA | -0.0442
47 | CTAGCCAA | 0.0338
48 | AATACTCT | -0.0737
49 | ATCCCTCA | -0.0655
50 | ACACTGGG | -0.148
51 | ATATCTTA | 0.0771
52 | ACGCCAGG | 0.0401
53 | AACTTACT | -0.125
54 | GGAATGCC | 0.289
55 | TCATCTCA | 0.117
56 | CCGATGTC | 0.0266
57 | CAGCTAAC | -0.291
58 | CGCTTGTA | 0.0798
59 | GAGTCACC | -0.0823
60 | ACCTAGGA | 0.0433
61 | GCCGGCAA | 0.37
62 | AAAGGGAG | -0.214
63 | CTATTGTA | -0.0911
64 | GCCGCTAA | 0.123
65 | AGCTGTAC | 0.0207
66 | ATTCATGG | -0.0272

Row | Sequence | PBM E-score
67 | CAATTCTA | -0.33
68 | ACCTGCAA | -0.184
69 | CGCCAAGA | -0.0296
70 | ATACATGA | -0.112
71 | CCCATGGA | -0.0126
72 | CATTGAAA | -0.087
73 | GCACCACA | 0.00291
74 | TAACGAGA | -0.126
75 | AGCACCAG | -0.207
76 | CCGCCTCC | 0.128
77 | AAGTTCTA | -0.0203
78 | CGACCTTA | -0.0108
79 | AATAGGTA | -0.179
80 | AAAACCAT | -0.153
81 | AGATGTGC | -0.039
82 | TTATTGAA | -0.179
83 | CGGTGGCA | 0.0244
84 | AAGGACGG | 0.0563
85 | ACAAGCAA | -0.144
86 | CCGTTCCG | 0.477
